Laboratory results taken from the supplement of paper PMC12067230.
The data scatter; read single values as rough.

assay: amyloid nucleation score relative to library mode (yeast Sup35 reporter selection) (log enrichment difference); higher = more amyloid nucleation; sequences are the first 22 residues of the Bri2 peptide extended by up to 12 random residues; settings: random library (experiment): 1;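 active = nucleation score significantly above 0 at FDR 0.05; inactive = not significantly above 0 or absent from output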
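Note: [psi-pin-] Saccharomyces cerevisiae expressing SupN fusions, induced by 100 µM Cu2SO4, selected 7 d at 30 °C without adenine and uracil, scored by deep sequencing of output versus input.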

Row | Sequence | amyloid nucleation score
1 | EASNCFAIRHFENKFAVETLICYT | inactive
2 | EASNCFAIRHFENKFAVETLICYTCGHMLRGLGK | 4.95
3 | EASNCFAIRHFENKFAVETLICYTCRIRHMRRYK | inactive
4 | EASNCFAIRHFENKFAVETLICYTDVRLNIPQYW | 4.46
5 | EASNCFAIRHFENKFAVETLICYTEQWCLSCWST | 5.86
6 | EASNCFAIRHFENKFAVETLICYTFC | 8.07
7 | EASNCFAIRHFENKFAVETLICYTFPVSVSSQ | inactive
8 | EASNCFAIRHFENKFAVETLICYTFTGSVFRASR | 4.26
9 | EASNCFAIRHFENKFAVETLICYTGVCERRGVTG | 1.5
10 | EASNCFAIRHFENKFAVETLICYTMSMGIWDRMW | inactive
11 | EASNCFAIRHFENKFAVETLICYTRGAMACGWGV | 3.75
12 | EASNCFAIRHFENKFAVETLICYTVKKTSFGVRE | 1.87
13 | EASNCFAIRHFENKFAVETLICYTVRESLFVVGC | inactive
14 | EASNCFAIRHFENKFAVETLICYTVWFGTKGIRT | inactive
15 | EASNCFAIRHFENKFAVETLICYVACYWVNFMLR | inactive
16 | EASNCFAIRHFENKFAVETLICYVAYWTVFRVEG | -0.258
17 | EASNCFAIRHFENKFAVETLICYVCTDEF | 8.17
18 | EASNCFAIRHFENKFAVETLICYVCVCLESRWNA | 6.84
19 | EASNCFAIRHFENKFAVETLICYVDPQGRIRMRH | 2.96
20 | EASNCFAIRHFENKFAVETLICYVDVSAMPASVQ | 4.46
21 | EASNCFAIRHFENKFAVETLICYVECLCIRDVAG | 4.79
22 | EASNCFAIRHFENKFAVETLICYVG | 6.29

Row | Sequence | amyloid nucleation score
23 | EASNCFAIRHFENKFAVETLICYVGLAHQDRVEA | inactive
24 | EASNCFAIRHFENKFAVETLICYVGRCRWPGRYP | inactive
25 | EASNCFAIRHFENKFAVETLICYVGSLFLHDRLL | inactive
26 | EASNCFAIRHFENKFAVETLICYVGSVGRRSQWA | inactive
27 | EASNCFAIRHFENKFAVETLICYVKELCVVNCLE | inactive
28 | EASNCFAIRHFENKFAVETLICYVKYEIMASKMW | inactive
29 | EASNCFAIRHFENKFAVETLICYVLCMGPFRCST | inactive
30 | EASNCFAIRHFENKFAVETLICYVLRRVRATLGG | inactive
31 | EASNCFAIRHFENKFAVETLICYVLRYIQ | inactive
32 | EASNCFAIRHFENKFAVETLICYVLWWYENAFVS | inactive
33 | EASNCFAIRHFENKFAVETLICYVMGDMLRVSAC | inactive
34 | EASNCFAIRHFENKFAVETLICYVNGHSMTPSWP | 4.94
35 | EASNCFAIRHFENKFAVETLICYVPGRGCWCLRR | inactive
36 | EASNCFAIRHFENKFAVETLICYVPRLL | inactive
37 | EASNCFAIRHFENKFAVETLICYVRHEKGLCPSA | inactive
38 | EASNCFAIRHFENKFAVETLICYVRTYRWTHAVP | inactive
39 | EASNCFAIRHFENKFAVETLICYVSFNCYWSS | inactive
40 | EASNCFAIRHFENKFAVETLICYVSGLARAKWRM | inactive
41 | EASNCFAIRHFENKFAVETLICYVSMDT | 5.55
42 | EASNCFAIRHFENKFAVETLICYVVGPKSMCSAA | inactive
43 | EASNCFAIRHFENKFAVETLICYVW | inactive

same assay, conditions: random library (experiment): 2

Row | Sequence | amyloid nucleation score
44 | EASNCFAIRHFENKFAVETLICYSYSVCGWLR | inactive
45 | EASNCFAIRHFENKFAVETLICYSYVLSSTRNCP | 2.3
46 | EASNCFAIRHFENKFAVETLICYTADRVGVSVCL | inactive
47 | EASNCFAIRHFENKFAVETLICYTCRSIWCISKL | inactive
48 | EASNCFAIRHFENKFAVETLICYTDGLYMATIMK | inactive
49 | EASNCFAIRHFENKFAVETLICYTEDVIY | inactive
50 | EASNCFAIRHFENKFAVETLICYTG | inactive
51 | EASNCFAIRHFENKFAVETLICYTGPWKTDGLKY | 2.83
52 | EASNCFAIRHFENKFAVETLICYTGTGNHASVSK | 3.14
53 | EASNCFAIRHFENKFAVETLICYTGVSRLGRGLR | 3.68
54 | EASNCFAIRHFENKFAVETLICYTKMCPRCSVCI | inactive
55 | EASNCFAIRHFENKFAVETLICYTLKVIMDNGCQ | inactive
56 | EASNCFAIRHFENKFAVETLICYTLVYNEQDRTV | 5.6
57 | EASNCFAIRHFENKFAVETLICYTNGRLKVKFCS | inactive
58 | EASNCFAIRHFENKFAVETLICYTRFMMEGERGE | 1.35
59 | EASNCFAIRHFENKFAVETLICYTRYTFFSWLGE | inactive
60 | EASNCFAIRHFENKFAVETLICYTSYCSCSFIGT | 5.89
61 | EASNCFAIRHFENKFAVETLICYTTIYLICLVES | inactive
62 | EASNCFAIRHFENKFAVETLICYTVKSMFLSRTP | inactive
63 | EASNCFAIRHFENKFAVETLICYTWCSVPACKCT | inactive
64 | EASNCFAIRHFENKFAVETLICYTWIDLRTDDAV | 4.69
65 | EASNCFAIRHFENKFAVETLICYTYLYSTSWIVS | inactive

Row | Sequence | amyloid nucleation score
66 | EASNCFAIRHFENKFAVETLICYV | inactive
67 | EASNCFAIRHFENKFAVETLICYVCLYGIIAHPF | 0.248
68 | EASNCFAIRHFENKFAVETLICYVDSCLIEGVYY | 6.16
69 | EASNCFAIRHFENKFAVETLICYVEMDLSDLVNT | inactive
70 | EASNCFAIRHFENKFAVETLICYVFNSNAYCAYL | 3.14
71 | EASNCFAIRHFENKFAVETLICYVHYSLCGLSGE | 6
72 | EASNCFAIRHFENKFAVETLICYVILDSRLFGVT | 4.72
73 | EASNCFAIRHFENKFAVETLICYVILLRYYRCFY | inactive
74 | EASNCFAIRHFENKFAVETLICYVIRVGNLESSG | inactive
75 | EASNCFAIRHFENKFAVETLICYVLVTACVWVHC | inactive
76 | EASNCFAIRHFENKFAVETLICYVMFSLAMVRVV | inactive
77 | EASNCFAIRHFENKFAVETLICYVMRHPTLALSS | inactive
78 | EASNCFAIRHFENKFAVETLICYVNAMHRGRDQE | 6.53
79 | EASNCFAIRHFENKFAVETLICYVQPC | inactive
80 | EASNCFAIRHFENKFAVETLICYVRRIEVCCKV | -0.336
81 | EASNCFAIRHFENKFAVETLICYVRWTT | inactive
82 | EASNCFAIRHFENKFAVETLICYVRYVRGFFD | 0.607
83 | EASNCFAIRHFENKFAVETLICYVVFVRTFKVLW | -0.0583
84 | EASNCFAIRHFENKFAVETLICYVVLCLSGTHEG | 5.45
85 | EASNCFAIRHFENKFAVETLICYVWFVLRSHVRY | inactive
86 | EASNCFAIRHFENKFAVETLICYVWNKHATPKRS | inactive

same assay, conditions: random library (experiment): 3

Row | Sequence | amyloid nucleation score
87 | EASNCFAIRHFENKFAVETLICYSYMFRWSTWYA | inactive
88 | EASNCFAIRHFENKFAVETLICYTCRCKVSHKVL | inactive
89 | EASNCFAIRHFENKFAVETLICYTKNLCRMYHSV | 1.63
90 | EASNCFAIRHFENKFAVETLICYTLKSCCTIARV | inactive
91 | EASNCFAIRHFENKFAVETLICYTLLKEPVRWLQ | inactive
92 | EASNCFAIRHFENKFAVETLICYTLVSAVVSREC | 2.75
93 | EASNCFAIRHFENKFAVETLICYTMGMLQLQPVW | inactive
94 | EASNCFAIRHFENKFAVETLICYTPSLRWALVLV | inactive
95 | EASNCFAIRHFENKFAVETLICYTRRNVFLSP | inactive
96 | EASNCFAIRHFENKFAVETLICYVAHCIRCVCCV | 0.711
97 | EASNCFAIRHFENKFAVETLICYVALTSTPWSPL | inactive
98 | EASNCFAIRHFENKFAVETLICYVARYGPVGPWV | inactive
99 | EASNCFAIRHFENKFAVETLICYVATNKPLGGLA | inactive
100 | EASNCFAIRHFENKFAVETLICYVAYDLQMWTGM | inactive
101 | EASNCFAIRHFENKFAVETLICYVCYRLSAEVPS | inactive
102 | EASNCFAIRHFENKFAVETLICYVGCMRNFAPWF | 3.53

Row | Sequence | amyloid nucleation score
103 | EASNCFAIRHFENKFAVETLICYVGVFSESWDWW | 3.22
104 | EASNCFAIRHFENKFAVETLICYVHQSLLLVGRA | inactive
105 | EASNCFAIRHFENKFAVETLICYVKVRNVSYASS | inactive
106 | EASNCFAIRHFENKFAVETLICYVLIPIDCVGGN | 1.36
107 | EASNCFAIRHFENKFAVETLICYVLTGCAVRKGL | inactive
108 | EASNCFAIRHFENKFAVETLICYVNAAWFYGKRG | 4.91
109 | EASNCFAIRHFENKFAVETLICYVPATAPTSFRD | 3.96
110 | EASNCFAIRHFENKFAVETLICYVRGCKIPVQWL | inactive
111 | EASNCFAIRHFENKFAVETLICYVRGFWMLHVWV | inactive
112 | EASNCFAIRHFENKFAVETLICYVSCSYLAYSKT | inactive
113 | EASNCFAIRHFENKFAVETLICYVSMALVKNITV | inactive
114 | EASNCFAIRHFENKFAVETLICYVSRFVYGHTVE | inactive
115 | EASNCFAIRHFENKFAVETLICYVVRVRRQGTRC | 2.42
116 | EASNCFAIRHFENKFAVETLICYVVWWYTQHSNV | inactive
117 | EASNCFAIRHFENKFAVETLICYVWKWRLRGEVR | -0.26
118 | EASNCFAIRHFENKFAVETLICYVYGAVMKQCRW | inactive
